# In all, about 2,900 compounds were measured (“IRF Lucia reporter activity, fold change vs agonist alone”: median about 0.9, highest 2% from about 2.8 on). The list shows a part of the results.
# Columns and labels:
# RAW-Dual [1] = assay: IRF Lucia reporter activity, fold change vs agonist alone; higher = enhanced IRF activity; settings: cytotoxicity flag (confluency mask): not cytotoxic, agonist: MPLA (TLR4) […]
# In short: (§1)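 RAW-Dual macrophages (50,000 cells/well in DMEM, 384-well plates) received 50 nL of library stock by pin tool, then a PRR agonist 1 h later, and were kept at 37 °C, 5% CO2. After 20 hours, supernatant was read for IRF by QuantiLuc luminescence and for NF-κB by QuantiBlue absorbance at 620 nm. Reporter activity is fold change over agonist-alone wells. Cytotoxic wells had IncuCyte confluency below 70% of agonist controls in both mask sets.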
# RAW-Dual [2] = assay: IRF Lucia reporter activity, fold change vs agonist alone; cytotoxicity flag (confluency mask): not cytotoxic; higher = enhanced IRF activity
# In short: as §1
# [3] = library stock concentration (final ~1000-fold dilution): 10 mM
# [4] = agonist: 3'3'-cGAMP (STING) 10 ug/mL
structure (smiles),measurement,setting,value
COc1cc(Nc2ncc(F)c(Nc3ccc4c(n3)NC(=O)C(C)(C)O4)n2)cc(OC)c1OC.O=S(=O)(O)c1ccccc1,IRF Lucia reporter activity,RAW-Dual [1]; [3],1.12
COc1cc(Nc2ncc(F)c(Nc3ccc4c(n3)NC(=O)C(C)(C)O4)n2)cc(OC)c1OC.O=S(=O)(O)c1ccccc1 (library stock concentration (final ~1000-fold dilution): 10 mM),IRF Lucia reporter activity,RAW-Dual [2]; [4],1.07
same,IRF Lucia reporter activity,RAW-Dual [2]; agonist: LPS (TLR4) 0.1 ug/mL,0.0315
O=C(c1cccc(Br)c1)N1CCC(N2CCCC2)CC1 (library stock concentration (final ~1000-fold dilution): 10 mM),IRF Lucia reporter activity,RAW-Dual [2]; [4],1.03
same,IRF Lucia reporter activity,RAW-Dual [2]; agonist: LPS (TLR4) 0.1 ug/mL,1.14
O=C(c1cccc(Br)c1)N1CCC(N2CCCC2)CC1,IRF Lucia reporter activity,RAW-Dual [1]; [3],1.01
C/C=C(/C)C(=O)OC1C(OC(C)=O)c2c(ccc3ccc(=O)oc23)OC1(C)C (stereo unspecified) (library stock concentration (final ~1000-fold dilution): 10 mM),IRF Lucia reporter activity,RAW-Dual [2]; [4],1.12
same,IRF Lucia reporter activity,RAW-Dual [2]; agonist: LPS (TLR4) 0.1 ug/mL,1.06
CC(=O)Nc1cccc2c1c(Sc1ccc(Cl)cc1)c(C)n2CC(=O)O,IRF Lucia reporter activity,RAW-Dual [1]; [3],0.997
CC(=O)Nc1cccc2c1c(Sc1ccc(Cl)cc1)c(C)n2CC(=O)O (library stock concentration (final ~1000-fold dilution): 10 mM),IRF Lucia reporter activity,RAW-Dual [2]; [4],0.901
same,IRF Lucia reporter activity,RAW-Dual [2]; agonist: LPS (TLR4) 0.1 ug/mL,0.855
COS(=O)(=O)[O-].C[N+]1(C)CCC(=C(c2ccccc2)c2ccccc2)CC1,IRF Lucia reporter activity,RAW-Dual [1]; [3],1.15
COS(=O)(=O)[O-].C[N+]1(C)CCC(=C(c2ccccc2)c2ccccc2)CC1 (library stock concentration (final ~1000-fold dilution): 10 mM),IRF Lucia reporter activity,RAW-Dual [2]; [4],1.13
same,IRF Lucia reporter activity,RAW-Dual [2]; agonist: LPS (TLR4) 0.1 ug/mL,1.3
O=C(Nc1ccc(OC(F)(F)F)cc1)c1sccc1NCc1ccnc2ccccc12,IRF Lucia reporter activity,RAW-Dual [1]; [3],0.816
O=C(Nc1ccc(OC(F)(F)F)cc1)c1sccc1NCc1ccnc2ccccc12 (library stock concentration (final ~1000-fold dilution): 10 mM),IRF Lucia reporter activity,RAW-Dual [2]; [4],0.0849
same,IRF Lucia reporter activity,RAW-Dual [2]; agonist: LPS (TLR4) 0.1 ug/mL,0.826
CCCCCCCCCCCCCCCCCCOP(=O)([O-])OC1CC[N+](C)(C)CC1 (library stock concentration (final ~1000-fold dilution): 10 mM water),IRF Lucia reporter activity,RAW-Dual [2]; [4],0.316
same,IRF Lucia reporter activity,RAW-Dual [2]; agonist: LPS (TLR4) 0.1 ug/mL,0.878
CCCCCCCCCCCCCCCCCCOP(=O)([O-])OC1CC[N+](C)(C)CC1,IRF Lucia reporter activity,RAW-Dual [1]; library stock concentration (final ~1000-fold dilution): 10 mM water,1.03
Cc1cc(=O)oc2cc(O)ccc12 (library stock concentration (final ~1000-fold dilution): 10 mM),IRF Lucia reporter activity,RAW-Dual [2]; [4],0.955
same,IRF Lucia reporter activity,RAW-Dual [2]; agonist: LPS (TLR4) 0.1 ug/mL,0.839
Cc1cc(=O)oc2cc(O)ccc12,IRF Lucia reporter activity,RAW-Dual [1]; [3],0.944
COc1cccc(-c2ccc(NC(=O)C3=C(C(=O)O)CCC3)c(F)c2)c1 (library stock concentration (final ~1000-fold dilution): 10 mM),IRF Lucia reporter activity,RAW-Dual [2]; [4],1.28
same,IRF Lucia reporter activity,RAW-Dual [2]; agonist: LPS (TLR4) 0.1 ug/mL,2.48
COc1cccc(-c2ccc(NC(=O)C3=C(C(=O)O)CCC3)c(F)c2)c1,IRF Lucia reporter activity,RAW-Dual [1]; [3],1.28
